In PMC4336329 (PLoS ONE, 2015):
Among all 310,000 compounds or so, about 14,000 (4.5%) showed an effect of 50% or more. The effect is printed as a negative number. The list shows a part of the results.

The compounds below were run against human ether-à-go-go-related gene (hERG) potassium channel (human, UniProt Q12809) (assay: primary screen, population patch clamp on CHO cells stably expressing hERG).
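Further: peak tail current of the secondary pulse compared with the same well before compound.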

human ether-à-go-go-related gene (hERG) potassium channel, sequence (Q12809 whole entry, looked up): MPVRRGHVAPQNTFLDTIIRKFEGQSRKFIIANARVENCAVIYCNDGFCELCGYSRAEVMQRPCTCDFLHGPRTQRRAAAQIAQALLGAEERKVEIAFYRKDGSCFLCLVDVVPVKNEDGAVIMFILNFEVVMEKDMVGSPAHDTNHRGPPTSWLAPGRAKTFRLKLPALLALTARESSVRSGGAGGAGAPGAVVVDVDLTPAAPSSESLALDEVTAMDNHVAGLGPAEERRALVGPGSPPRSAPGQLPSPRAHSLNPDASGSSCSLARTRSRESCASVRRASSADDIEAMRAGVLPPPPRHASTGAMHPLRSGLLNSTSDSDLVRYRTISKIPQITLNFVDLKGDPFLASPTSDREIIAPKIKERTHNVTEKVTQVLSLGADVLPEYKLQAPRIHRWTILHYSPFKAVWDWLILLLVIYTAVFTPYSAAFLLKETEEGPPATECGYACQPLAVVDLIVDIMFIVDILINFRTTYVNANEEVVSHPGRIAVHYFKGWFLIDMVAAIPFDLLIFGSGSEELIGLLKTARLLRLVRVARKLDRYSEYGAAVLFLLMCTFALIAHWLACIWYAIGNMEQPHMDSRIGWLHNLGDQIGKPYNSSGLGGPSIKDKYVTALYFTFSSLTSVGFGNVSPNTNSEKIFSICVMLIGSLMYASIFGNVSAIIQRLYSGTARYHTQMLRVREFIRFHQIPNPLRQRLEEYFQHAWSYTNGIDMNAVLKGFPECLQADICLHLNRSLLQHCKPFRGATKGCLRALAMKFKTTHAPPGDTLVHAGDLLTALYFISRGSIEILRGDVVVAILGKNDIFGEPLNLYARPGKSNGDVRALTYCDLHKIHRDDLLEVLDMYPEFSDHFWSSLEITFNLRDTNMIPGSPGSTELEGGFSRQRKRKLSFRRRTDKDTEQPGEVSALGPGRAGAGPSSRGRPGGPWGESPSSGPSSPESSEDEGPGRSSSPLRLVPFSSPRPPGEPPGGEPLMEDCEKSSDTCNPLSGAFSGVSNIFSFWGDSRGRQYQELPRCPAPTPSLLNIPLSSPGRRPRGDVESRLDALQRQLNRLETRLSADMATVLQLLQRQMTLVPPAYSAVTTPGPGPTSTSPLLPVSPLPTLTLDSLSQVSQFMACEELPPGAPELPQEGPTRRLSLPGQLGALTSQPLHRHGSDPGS

Row | SMILES | hERG current change (%, negative = inhibition) at 10uM [%]
1 | CC(C)(C)OC(=O)N1CCC(c2c(C(=O)NCC3CCN(C4CCCC4)C3)cnn2-c2ccccc2Cl)CC1 (stereo not drawn) | 3.36
2 | CC(C)(C)NC(=O)Cn1c(SCC(N)=O)nc2ccccc21 | 3.99
3 | Cc1onc(NC(=O)NC(=O)c2ccccc2F)c1Br | -1.77
4 | O=C(NCc1cccnc1)C1c2ccccc2C(=O)N1C1CCCCCC1 (stereo not drawn) | 2.21
5 | CC1=C(C#N)C(Nc2cc(C)ccn2)(C(F)(F)F)C(=O)N1 (stereo not drawn) | 0.371
6 | N#CCN1CCN(CCC(=O)Nc2ccc(OCc3ccccc3)cc2)CC1 | -26.3
7 | COc1c(Cl)cc(Cl)cc1/C=N/n1cnnc1 | -9.63
8 | O=C(Nc1ccc(Br)cc1)C1CCC(=O)N1Cc1ccccc1Cl (stereo not drawn) | 5.71
9 | COc1ccc(NS(=O)(=O)c2cc3c(cc2C)NC(=O)CO3)c(OC)c1 | -15.3
10 | COC(=O)Cc1ccc(NC(=O)c2ccc3c(c2)C(=O)N(Cc2cccnc2)C3=O)cc1 | 5.83
11 | CSCCCN1CCC(n2nccc2NC(=O)CCCc2ccccc2)CC1 | -62.5
12 | CCCCSc1cnn(-c2ccccc2)c(=O)c1SCCCC | -0.179
13 | COc1ccc(C)cc1N(CC(=O)N1CCCCCC1)S(=O)(=O)c1ccc(C)cc1 | -20.9
14 | COc1cc(NC(=O)Cn2nc(C(F)(F)F)c(Br)c2C)cc([N+](=O)[O-])c1 | 27.7
15 | CC1(C)Cc2c(oc3ncn4ncnc4c23)CO1 | 16.3
16 | CCCCN(C(=O)c1ccc(C)o1)c1c(N)n(CCCC)c(=O)[nH]c1=O | -7.4
17 | O=C1/C(=C\c2ccc(O)cc2)SC(=S)N1Cc1ccccc1 | 13.1
18 | O=C(NCc1ccc2c(c1)OCO2)c1ccccn1 | 3.65
19 | CSCCC(NC(=O)c1ccco1)C(=O)N(C)CC(=O)Nc1c(Cl)cccc1Cl (stereo not drawn) | 11.8
20 | N#Cc1c(NC(=O)c2ccc(Cn3cc(Br)cn3)o2)sc2c1CCCCCC2 | 1.54
21 | COc1ccccc1-c1n[nH]c(=S)n1Cc1ccccc1 | 13.2
22 | Cc1nc(-c2ccccn2)nc(SCC(=O)c2ccccc2)c1Cl | -15.6
23 | Cc1ccc(CNC(=O)COC(=O)c2ccc(Br)cc2)cc1 | 19.3
24 | Cc1ccc(NC(=O)C2CCCN2c2nn3c(=O)cc(C)nc3s2)cc1 (stereo not drawn) | -12.2
25 | CCCCOC(=O)CCNc1n[nH]c(=O)[nH]c1=O | -2.31
26 | O=C(NCc1ccco1)c1cccc(S(=O)(=O)N2CCN(Cc3ccccc3)CC2)c1 | -20.9
27 | CCN(CC)C(=O)Cc1c(OC)ccc2cc(Br)ccc12 | -14.3

Row | SMILES | hERG current change (%, negative = inhibition) at 10uM [%]
28 | CCN(CC)CCCn1c2c(c(SCC(=O)Nc3cccc(C)c3C)nc1=O)CCC2 | -55.3
29 | COc1cccc(CC(NC(C)=O)C(=O)NC2CCN(c3nc(C)cc(C)c3C#N)CC2)c1 (stereo not drawn) | 0.137
30 | COc1ccc(CN2CCN(Cc3cccn3-c3ncccn3)CC2CCO)c(C)c1C (stereo not drawn) | -81.6
31 | CCCCN(C)S(=O)(=O)c1ccc(C(=O)Nc2nnc(-c3cccs3)o2)cc1 | 0.168
32 | CCn1cc(C(=O)O)c(=O)c2cc(F)c(N3CCN(C(=S)Nc4ccc(OC)cc4)CC3)cc21 | 32.4
33 | Cc1ccc(N2CC(C(=O)Nc3nnc(SCC(=O)Nc4cc(C)on4)s3)CC2=O)cc1 (stereo not drawn) | 5.51
34 | Cc1cccc(NC(=S)NN(Cc2ccccc2)c2ccccc2)c1C | 11.7
35 | CCOc1ccc(Nc2cc(=O)[nH]c(=O)[nH]2)cc1 | 15.4
36 | COc1cc2c(cc1OC)CN(C(=O)c1cc(S(=O)(=O)N3CCOCC3)c(Cl)cc1Cl)CC2 | -13.7
37 | CCOC(=O)c1c(C)[nH]c(C)c1C(=O)COC(=O)CNC(=O)C1CCCCC1 | -9.67
38 | CC(=O)Nc1ccc(S(=O)(=O)N(C)CC(=O)OCC(=O)N2CCc3ccccc32)cc1 | -3.16
39 | Cc1cc(C)nc(NS(=O)(=O)c2ccc(NC(=O)Cc3ccc(F)cc3)cc2)n1 | 7.98
40 | CC(=O)/C(=N\Nc1ccccc1Cl)Sc1nnc(-c2ccccc2)n1-c1ccccc1 | 4.12
41 | C=CCN1C(=O)C2C(C(=O)NC3CCCC3)C3(C)C=CC2(O3)C1C(=O)NC1CCCC1 (stereo not drawn) | 8.72
42 | O=C(COC(=O)Cc1cccc(C(F)(F)F)c1)Nc1ccc2[nH]c(=O)[nH]c2c1 | 14.2
43 | CCOC(=O)Cc1csc(N/N=C\c2cccc(Br)c2)n1 | -2.48
44 | CC(OC(=O)CN1C(=O)c2ccccc2C1=O)C(=O)N(C)c1ccccc1 (stereo not drawn) | 15.7
45 | O=C(Cn1c(C(=O)O)cc2ccccc21)c1ccccc1 | 18.6
46 | Cc1cccc(C(=O)N2CCCC(c3nc(-c4ccc(C)o4)no3)C2)c1 (stereo not drawn) | -27.7
47 | O=S(=O)(NNC(=S)Nc1ccc(S(=O)(=O)Nc2ncccn2)cc1)c1ccc(Br)cc1 | 26.7
48 | CCc1ccc(N(C(=O)CCC(=O)Nc2cc(C)on2)C(C(=O)NC2CCCC2)c2ccco2)cc1 (stereo not drawn) | -10.3
49 | C/C=C\C(=O)Nc1cccc(C2=NOC3(C2)C[C@@H](C(N)=O)N(C(=O)COc2ccc(Cl)cc2)C3)c1 (stereo partly drawn) | -3.48
50 | COc1cc(C(F)(F)F)c(C(=O)N(C)Cc2cccc(Cl)c2)cn1 | -5.3
51 | CN(CC(=O)O)S(=O)(=O)c1ccc2c(c1)NC(=O)CC(=O)N2 | 6.63
52 | COc1ccc(CC(=O)N2CCN(C)CC2)cc1 | -16.3
53 | CC(C)C(NS(=O)(=O)c1ccc2c(c1)oc(=O)n2C)C(=O)N1CCN(Cc2ccccc2)CC1 (stereo not drawn) | -7.65
54 | COC(=O)C1(O)CC(CC(C)C)=NN1C(=O)c1ccccc1 (stereo not drawn) | 4.48
